Article PMC5730846
Substitutions are numbered along the chain they refer to. No constants are given. Whether binding was seen depends on the method and setting. Binding seen in cells or lysates may run through a third protein. Some results given as binding are weak or reduced against the parent protein; the word gives no strength. For some assays here: Where a sequence is shown, tags or fusion partners need not be part of it.

Sequences of proteins named here, by UniProt entry; tags and fusion partners are left off.
UniProt P49815: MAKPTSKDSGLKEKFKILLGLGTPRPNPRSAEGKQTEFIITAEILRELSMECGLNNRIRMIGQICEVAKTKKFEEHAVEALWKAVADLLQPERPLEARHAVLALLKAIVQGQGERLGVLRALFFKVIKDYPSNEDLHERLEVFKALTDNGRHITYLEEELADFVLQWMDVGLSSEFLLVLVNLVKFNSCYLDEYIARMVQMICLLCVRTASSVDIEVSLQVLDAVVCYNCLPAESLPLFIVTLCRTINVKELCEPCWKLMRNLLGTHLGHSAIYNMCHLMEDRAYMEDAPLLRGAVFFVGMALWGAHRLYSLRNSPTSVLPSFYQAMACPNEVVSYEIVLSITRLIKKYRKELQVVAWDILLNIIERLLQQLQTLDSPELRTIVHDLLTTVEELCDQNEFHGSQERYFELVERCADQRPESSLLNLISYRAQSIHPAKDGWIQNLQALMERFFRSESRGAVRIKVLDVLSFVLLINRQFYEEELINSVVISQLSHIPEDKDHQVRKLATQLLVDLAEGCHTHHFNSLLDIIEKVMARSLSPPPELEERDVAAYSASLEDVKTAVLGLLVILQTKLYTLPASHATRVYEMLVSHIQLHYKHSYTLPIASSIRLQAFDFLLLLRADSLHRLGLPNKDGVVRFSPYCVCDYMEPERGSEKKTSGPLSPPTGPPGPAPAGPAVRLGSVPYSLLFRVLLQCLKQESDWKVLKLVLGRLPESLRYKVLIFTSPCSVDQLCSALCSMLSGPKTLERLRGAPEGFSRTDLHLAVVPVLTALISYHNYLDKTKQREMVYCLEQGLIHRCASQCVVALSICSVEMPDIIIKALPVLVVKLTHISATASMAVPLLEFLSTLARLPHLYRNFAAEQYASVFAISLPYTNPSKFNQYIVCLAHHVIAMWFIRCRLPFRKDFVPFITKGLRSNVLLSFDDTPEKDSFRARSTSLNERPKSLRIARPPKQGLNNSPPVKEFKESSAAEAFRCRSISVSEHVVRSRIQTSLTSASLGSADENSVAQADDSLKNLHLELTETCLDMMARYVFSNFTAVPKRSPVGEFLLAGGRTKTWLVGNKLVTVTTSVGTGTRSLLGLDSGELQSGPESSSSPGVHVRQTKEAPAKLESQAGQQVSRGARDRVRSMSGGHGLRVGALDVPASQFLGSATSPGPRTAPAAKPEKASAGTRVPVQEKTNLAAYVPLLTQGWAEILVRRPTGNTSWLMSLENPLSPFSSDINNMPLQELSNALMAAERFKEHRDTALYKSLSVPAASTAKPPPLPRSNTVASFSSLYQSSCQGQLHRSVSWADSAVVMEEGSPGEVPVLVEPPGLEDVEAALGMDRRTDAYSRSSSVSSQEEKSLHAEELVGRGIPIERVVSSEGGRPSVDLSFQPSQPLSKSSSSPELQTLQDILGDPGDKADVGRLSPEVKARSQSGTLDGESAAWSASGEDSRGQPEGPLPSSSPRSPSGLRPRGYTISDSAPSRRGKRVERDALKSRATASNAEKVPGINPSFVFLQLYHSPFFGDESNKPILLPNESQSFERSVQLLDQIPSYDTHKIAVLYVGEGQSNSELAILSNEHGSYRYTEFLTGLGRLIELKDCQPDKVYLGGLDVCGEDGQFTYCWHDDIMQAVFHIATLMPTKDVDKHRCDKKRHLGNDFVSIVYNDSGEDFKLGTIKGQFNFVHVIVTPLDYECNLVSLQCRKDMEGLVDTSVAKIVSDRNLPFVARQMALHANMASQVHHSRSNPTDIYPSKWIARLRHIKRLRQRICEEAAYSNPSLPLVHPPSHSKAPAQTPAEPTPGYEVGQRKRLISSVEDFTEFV
UniProt O95433: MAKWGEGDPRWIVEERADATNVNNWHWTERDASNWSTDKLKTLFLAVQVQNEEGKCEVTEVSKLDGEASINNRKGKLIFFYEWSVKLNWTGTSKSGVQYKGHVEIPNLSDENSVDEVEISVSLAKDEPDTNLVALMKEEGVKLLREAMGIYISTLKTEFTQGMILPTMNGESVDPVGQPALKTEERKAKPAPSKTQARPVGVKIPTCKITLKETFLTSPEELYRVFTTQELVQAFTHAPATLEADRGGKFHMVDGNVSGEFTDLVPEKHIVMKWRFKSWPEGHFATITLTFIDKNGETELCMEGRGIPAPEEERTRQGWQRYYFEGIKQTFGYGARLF
UniProt P04150: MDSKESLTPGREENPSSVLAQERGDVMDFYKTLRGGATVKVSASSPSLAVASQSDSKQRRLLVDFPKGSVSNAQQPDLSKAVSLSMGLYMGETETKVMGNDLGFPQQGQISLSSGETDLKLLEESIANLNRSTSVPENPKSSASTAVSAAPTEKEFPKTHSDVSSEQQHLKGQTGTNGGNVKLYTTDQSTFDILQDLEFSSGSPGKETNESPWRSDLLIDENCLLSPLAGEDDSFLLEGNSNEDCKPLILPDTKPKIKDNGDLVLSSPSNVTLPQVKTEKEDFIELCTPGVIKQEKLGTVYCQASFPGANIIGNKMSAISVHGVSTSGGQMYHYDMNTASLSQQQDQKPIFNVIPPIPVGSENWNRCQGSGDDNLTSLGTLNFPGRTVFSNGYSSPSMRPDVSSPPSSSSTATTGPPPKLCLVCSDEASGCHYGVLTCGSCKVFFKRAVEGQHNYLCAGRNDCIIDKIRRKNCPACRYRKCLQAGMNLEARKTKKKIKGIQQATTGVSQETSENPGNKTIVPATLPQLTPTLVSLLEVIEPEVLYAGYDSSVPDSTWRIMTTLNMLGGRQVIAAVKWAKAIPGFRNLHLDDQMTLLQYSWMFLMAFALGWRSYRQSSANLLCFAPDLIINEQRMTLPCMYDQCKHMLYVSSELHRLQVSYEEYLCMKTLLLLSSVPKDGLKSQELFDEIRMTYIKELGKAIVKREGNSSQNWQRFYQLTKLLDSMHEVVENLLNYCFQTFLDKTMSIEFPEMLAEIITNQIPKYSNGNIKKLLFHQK
UniProt Q61037: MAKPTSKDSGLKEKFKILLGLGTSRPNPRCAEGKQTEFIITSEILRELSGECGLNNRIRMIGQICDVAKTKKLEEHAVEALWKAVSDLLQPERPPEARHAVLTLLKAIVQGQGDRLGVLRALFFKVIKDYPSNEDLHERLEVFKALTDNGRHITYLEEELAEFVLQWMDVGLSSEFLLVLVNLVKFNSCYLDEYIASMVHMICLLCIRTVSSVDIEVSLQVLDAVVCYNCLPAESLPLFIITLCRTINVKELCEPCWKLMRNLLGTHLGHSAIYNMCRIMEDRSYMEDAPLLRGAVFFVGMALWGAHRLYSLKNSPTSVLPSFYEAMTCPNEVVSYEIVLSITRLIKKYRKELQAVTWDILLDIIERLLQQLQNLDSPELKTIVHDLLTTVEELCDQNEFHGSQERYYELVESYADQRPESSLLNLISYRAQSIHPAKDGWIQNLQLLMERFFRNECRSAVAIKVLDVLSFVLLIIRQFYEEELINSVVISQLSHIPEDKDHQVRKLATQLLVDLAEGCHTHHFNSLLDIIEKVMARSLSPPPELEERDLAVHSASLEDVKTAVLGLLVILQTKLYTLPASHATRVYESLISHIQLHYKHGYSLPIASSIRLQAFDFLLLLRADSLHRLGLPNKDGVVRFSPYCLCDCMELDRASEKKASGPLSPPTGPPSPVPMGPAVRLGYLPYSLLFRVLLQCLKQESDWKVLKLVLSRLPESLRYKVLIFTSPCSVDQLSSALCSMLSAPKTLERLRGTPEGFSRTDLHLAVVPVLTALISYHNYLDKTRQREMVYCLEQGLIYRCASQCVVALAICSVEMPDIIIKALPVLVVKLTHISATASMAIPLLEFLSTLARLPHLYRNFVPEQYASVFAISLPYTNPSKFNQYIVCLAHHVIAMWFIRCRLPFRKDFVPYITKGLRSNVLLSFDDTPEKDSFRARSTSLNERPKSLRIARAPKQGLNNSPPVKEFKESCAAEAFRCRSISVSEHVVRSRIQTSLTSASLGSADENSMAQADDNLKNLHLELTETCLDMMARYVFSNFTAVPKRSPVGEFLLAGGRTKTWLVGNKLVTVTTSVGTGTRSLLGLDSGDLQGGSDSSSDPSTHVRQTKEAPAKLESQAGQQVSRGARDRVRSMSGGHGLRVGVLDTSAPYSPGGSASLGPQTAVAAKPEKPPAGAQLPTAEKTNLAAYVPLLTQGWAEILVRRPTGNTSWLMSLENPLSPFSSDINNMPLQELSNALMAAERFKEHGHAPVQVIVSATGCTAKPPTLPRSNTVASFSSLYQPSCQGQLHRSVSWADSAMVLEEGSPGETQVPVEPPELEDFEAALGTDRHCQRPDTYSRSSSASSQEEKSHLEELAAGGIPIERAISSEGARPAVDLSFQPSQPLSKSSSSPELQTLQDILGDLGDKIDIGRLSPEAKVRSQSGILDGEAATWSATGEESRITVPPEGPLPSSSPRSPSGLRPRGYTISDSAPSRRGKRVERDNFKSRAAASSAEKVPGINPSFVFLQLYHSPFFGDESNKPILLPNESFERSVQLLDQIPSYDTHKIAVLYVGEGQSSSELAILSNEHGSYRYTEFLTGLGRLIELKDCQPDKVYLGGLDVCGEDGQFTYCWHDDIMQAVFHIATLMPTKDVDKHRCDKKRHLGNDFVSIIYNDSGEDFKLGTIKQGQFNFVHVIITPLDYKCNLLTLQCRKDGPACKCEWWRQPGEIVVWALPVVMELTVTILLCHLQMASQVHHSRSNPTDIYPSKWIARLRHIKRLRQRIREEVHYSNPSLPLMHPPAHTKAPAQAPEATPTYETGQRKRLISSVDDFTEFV

Key:
[1] = biological target: Tsc2 (tuberin) (human (endogenous in HEK293)) (UniProt P49815); assay: co-IP; endogenous Tsc2 immunoprecipitated from HEK293 lysate with anti-Tsc2 antibody (IgG control); immunoblot
[2] = biological target: T1, Tsc1 (hamartin) (human (endogenous in HEK293)) (UniProt Q92574); assay: co-IP; endogenous Tsc1 immunoprecipitated from HEK293 lysate with anti-Tsc1 antibody (IgG control); immunoblot
T1 sequence: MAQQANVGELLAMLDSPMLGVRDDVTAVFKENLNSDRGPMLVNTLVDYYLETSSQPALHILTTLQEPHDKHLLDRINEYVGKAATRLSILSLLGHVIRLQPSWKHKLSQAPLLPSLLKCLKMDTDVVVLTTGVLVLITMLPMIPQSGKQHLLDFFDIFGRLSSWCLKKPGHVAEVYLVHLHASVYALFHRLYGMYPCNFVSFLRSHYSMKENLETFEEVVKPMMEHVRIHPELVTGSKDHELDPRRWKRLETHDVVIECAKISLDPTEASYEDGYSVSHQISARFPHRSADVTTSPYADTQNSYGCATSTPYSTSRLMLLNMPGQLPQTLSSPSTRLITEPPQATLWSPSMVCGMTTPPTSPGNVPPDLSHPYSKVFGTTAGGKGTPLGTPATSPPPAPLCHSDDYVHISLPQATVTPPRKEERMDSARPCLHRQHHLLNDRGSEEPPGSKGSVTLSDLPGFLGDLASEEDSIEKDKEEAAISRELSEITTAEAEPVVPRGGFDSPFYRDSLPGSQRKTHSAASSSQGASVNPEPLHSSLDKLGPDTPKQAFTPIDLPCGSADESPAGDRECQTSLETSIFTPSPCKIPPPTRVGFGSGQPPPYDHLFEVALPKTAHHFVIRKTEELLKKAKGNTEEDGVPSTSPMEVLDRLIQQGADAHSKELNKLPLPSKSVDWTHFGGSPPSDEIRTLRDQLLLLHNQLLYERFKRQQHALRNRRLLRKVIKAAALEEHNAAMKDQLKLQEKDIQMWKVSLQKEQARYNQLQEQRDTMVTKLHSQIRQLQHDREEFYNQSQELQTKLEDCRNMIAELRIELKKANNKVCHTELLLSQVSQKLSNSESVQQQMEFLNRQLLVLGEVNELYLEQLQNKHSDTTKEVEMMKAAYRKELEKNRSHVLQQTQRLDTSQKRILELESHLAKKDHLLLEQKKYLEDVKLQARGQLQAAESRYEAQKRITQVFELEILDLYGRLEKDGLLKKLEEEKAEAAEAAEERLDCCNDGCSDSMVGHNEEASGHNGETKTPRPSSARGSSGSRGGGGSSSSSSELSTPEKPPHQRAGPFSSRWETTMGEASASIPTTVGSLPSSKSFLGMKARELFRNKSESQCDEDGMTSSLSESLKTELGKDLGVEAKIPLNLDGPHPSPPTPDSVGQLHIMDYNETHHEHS

Tsc1-D-FLAG = biological target: T2, Tsc1-D-FLAG (UniProt Q92574); assay: co-IP; FLAG-tagged protein transiently expressed in HEK293, immunoprecipitated with anti-FLAG M2 affinity gel; endogenous partners by immunoblot; empty vector control
T2 sequence: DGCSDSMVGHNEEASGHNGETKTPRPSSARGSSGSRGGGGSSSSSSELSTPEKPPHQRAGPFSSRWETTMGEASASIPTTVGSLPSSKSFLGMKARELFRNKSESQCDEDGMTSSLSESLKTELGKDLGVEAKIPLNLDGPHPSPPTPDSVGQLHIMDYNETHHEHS

L117P-Tsc1-HA = biological target: T3, L117P-Tsc1-HA (UniProt Q92574); assay: co-IP; L117P-Tsc1-HA (6 μg plasmid) transiently expressed in Tsc1−/− MEF cells and immunoprecipitated; immunoblot
T3 sequence: T1 sequence with L117P

Substance | binding [1] | binding [2] | binding (Tsc1-D-FLAG) | binding (L117P-Tsc1-HA)
Aha1 (from UniProt O95433 1-338) | no binding | no binding | no binding | 
Raf-1 (from UniProt P04049 1-648) |  | binds |  | 
glucocorticoid receptor (GR) (from UniProt P04150 1-777) |  | binds |  | 

Next, values leading:

binding [1] | binding [2] | binding (Tsc1-D-FLAG) | binding (L117P-Tsc1-HA) | Substance
binds | no binding |  |  | HOP (from UniProt P31948 1-543)
 |  |  | binds | Tsc2 (MEF cells) (from UniProt Q61037 1-1814)
